# Paper PMC4336329 (PLoS ONE, 2015)
# Out of some 310,000 compounds screened, about 14,000 (4.5%) showed an effect of 50% or more. The effect is printed as a negative number. Some of the results follow.
# Target: human ether-à-go-go-related gene (hERG) potassium channel (human, UniProt Q12809)
# Assay: primary screen, population patch clamp on CHO cells stably expressing hERG
# 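Note: peak tail current of the secondary pulse compared with the same well before compound.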
# human ether-à-go-go-related gene (hERG) potassium channel, sequence (Q12809 whole entry, looked up): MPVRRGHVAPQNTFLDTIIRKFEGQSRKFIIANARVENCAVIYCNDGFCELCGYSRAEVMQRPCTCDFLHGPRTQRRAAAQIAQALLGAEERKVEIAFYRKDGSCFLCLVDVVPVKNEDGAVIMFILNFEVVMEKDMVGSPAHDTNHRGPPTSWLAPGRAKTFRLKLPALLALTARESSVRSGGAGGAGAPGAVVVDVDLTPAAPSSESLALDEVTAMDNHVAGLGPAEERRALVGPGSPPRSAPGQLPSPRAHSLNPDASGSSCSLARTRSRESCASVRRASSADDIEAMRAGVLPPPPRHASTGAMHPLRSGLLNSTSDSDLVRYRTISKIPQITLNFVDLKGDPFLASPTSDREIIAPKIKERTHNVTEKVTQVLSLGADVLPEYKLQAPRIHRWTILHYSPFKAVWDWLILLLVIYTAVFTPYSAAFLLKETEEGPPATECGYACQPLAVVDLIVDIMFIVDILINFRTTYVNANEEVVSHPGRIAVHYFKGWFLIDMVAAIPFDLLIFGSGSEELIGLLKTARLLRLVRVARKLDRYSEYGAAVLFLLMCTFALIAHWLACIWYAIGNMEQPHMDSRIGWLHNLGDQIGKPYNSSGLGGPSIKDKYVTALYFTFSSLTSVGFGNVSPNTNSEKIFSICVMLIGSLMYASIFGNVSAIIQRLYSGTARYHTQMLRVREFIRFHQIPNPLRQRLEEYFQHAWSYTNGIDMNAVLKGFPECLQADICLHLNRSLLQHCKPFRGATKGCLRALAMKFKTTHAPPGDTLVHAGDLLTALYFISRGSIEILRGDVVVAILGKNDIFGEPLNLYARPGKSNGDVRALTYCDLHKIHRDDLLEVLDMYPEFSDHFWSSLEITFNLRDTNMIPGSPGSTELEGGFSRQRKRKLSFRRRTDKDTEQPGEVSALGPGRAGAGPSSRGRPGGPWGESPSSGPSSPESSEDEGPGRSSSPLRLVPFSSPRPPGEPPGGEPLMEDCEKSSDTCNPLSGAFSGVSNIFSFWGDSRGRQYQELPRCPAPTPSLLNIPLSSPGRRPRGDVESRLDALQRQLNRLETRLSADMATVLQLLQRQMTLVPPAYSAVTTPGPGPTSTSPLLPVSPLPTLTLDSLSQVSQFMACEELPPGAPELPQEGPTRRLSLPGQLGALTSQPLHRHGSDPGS
row,SMILES,"hERG current change (%, negative = inhibition) at 10uM"
1,COCCNC(=O)CCCn1c(=O)c2cc(OC)c(OC)cc2n(CC(=O)Nc2ccc(C)c(F)c2)c1=O,14.1%
2,O=C(Nc1ccc2c(c1)OCO2)c1ccccn1,10.2%
3,Cc1noc(C)c1C(=O)OCC(=O)Nc1cccc(S(=O)(=O)N(C)C)c1,1.59%
4,CCOC(=O)Cc1csc(NC(=O)CSc2nncn2C)n1,4.31%
5,CCOc1ccc(-n2c(SCc3ccc(C#N)cc3)nnc2-c2cccnc2)cc1,-71.9%
6,COc1ccc(NC(=O)N2CCCC(C(=O)NCc3ccccc3F)C2)cc1 (stereo not shown),-4.05%
7,CC[C@H](C)[C@H](NC(N)=O)C(=O)NCCc1ccc(OC)cc1,-0.532%
8,Fc1ccc(C2CCCN2Cc2nc(-c3cnccn3)no2)cc1 (stereo not shown),5.32%
9,Cn1c(SCC(=O)Nc2cccc(S(=O)(=O)N3CCOCC3)c2)nnc1-c1ccncc1,-6.8%
10,O=S(=O)(c1cccc(C(F)(F)F)c1)N1CCC(O)(c2cccnc2)CC1,-4.42%
11,O=C(c1nc(SCc2ccc([N+](=O)[O-])cc2)n2ccccc12)C(F)(F)F,-71.1%
12,CCOc1ccc(S(=O)(=O)N(CC(=O)NCC(F)(F)F)Cc2ccco2)cc1,-17.1%
13,CC(C)(C)c1ccc(-n2ncc3c2CCCC3NC(=O)CCN2CCCC2=O)cc1 (stereo not shown),10.6%
14,CCc1ccccc1N(C(C)=O)c1nc(CN=C=S)cs1,-17%
15,CCn1c(=S)[nH]c2sc3c(c2c1=O)CCCCC3,26%
16,O=C(Nc1cccc(S(=O)(=O)N2CCCCCC2)c1)c1ccc2c(c1)OCO2,2.46%
17,CSc1cccc(NC(=O)CNS(=O)(=O)c2ccccc2)c1,14.1%
18,O=C(CCCn1c(=S)[nH]c2ccccc2c1=O)N1CCN(c2cccc(Cl)c2)CC1,12.9%
19,O=C(O)c1ccc(NC(=O)c2ccco2)c(NC(=O)c2ccco2)c1,17.6%
20,CCOc1ccccc1OCCC(=O)OCC(=O)c1ccc[nH]1,-16.2%
21,Cc1ccc(-c2cc(C(=O)N/N=C/c3ccoc3)c3ccccc3n2)cc1,8.98%
22,Cc1ccc(NC(=O)CCc2c(C)nn(-c3ccc(N4CCCCC4)nn3)c2C)cc1C,-5%
23,O=C(CCCOc1ccc(Cl)cc1Cl)N/N=C/c1cccc([N+](=O)[O-])c1,9.56%
24,CC(=O)Nc1ccccc1N(CC(O)Cn1c2ccccc2c2ccccc21)S(=O)(=O)c1ccc(C)cc1 (stereo not shown),23.6%
25,CN1CCCN(c2ccc([N+](=O)[O-])cc2)CC1,-66%
26,Cc1nn(CC(=O)NNC(=O)c2ccc(Br)cc2)c(C)c1[N+](=O)[O-],-26.5%
27,O=C(CCN1C(=O)/C(=C/c2ccccc2Cl)SC1=S)Nc1cccnc1,4.14%
28,O=C(NN1S(=O)(=O)c2ccccc2S1(=O)=O)c1ccc(Br)cc1,-25%

row,SMILES,"hERG current change (%, negative = inhibition) at 10uM"
1,COc1ccc(COC(=O)C2=C(C)NC(=O)NC2c2ccccc2OC(C)C)cc1 (stereo not shown),-0.138%
2,COc1ccc(C(=O)NCC(=O)OCC(=O)NC(=O)c2ccc(C(C)(C)C)cc2)cc1OC,-23.7%
3,CCC(=O)N1CCc2cc(S(=O)(=O)NCCCOC)ccc21,8.18%
4,COc1ccc(/C(N)=N/OC(=O)c2ccc(C)c([N+](=O)[O-])c2)cc1,-6.61%
5,CC(=O)Nc1ccc(OCC(O)CN2C(C)(C)CC(O)CC2(C)C)cc1 (stereo not shown),3.95%
6,O=C(Nc1nc(-c2ccncc2)cs1)c1ccco1,2.66%
7,COc1ccc(OC)c(NC(=O)c2cccnc2Sc2ccccc2)c1,-1.6%
8,O=C(CCc1ccccc1)NCc1cccnc1,-4.75%
9,CC1(C(=O)OCC(=O)N2c3ccccc3Sc3ccccc32)CC1(Cl)Cl (stereo not shown),1.36%
10,Cc1ccc2c(c1)nnn2C1CCN(C(=O)c2cccs2)CC1,-48.6%
11,N#Cc1cccc(NC(=O)COC(=O)c2cccc(N3C(=O)c4ccccc4C3=O)c2)c1,-1.41%
12,COc1ccc(Cc2noc(CN3CCC(c4ccncc4)CC3)n2)cc1OC,-20%
13,CCS(=O)(=O)c1ccc2oc(=O)c(/C=C(\O)c3ccc(Cl)cc3)nc2c1,18.2%
14,COc1ccccc1CNC(=O)N1CCN(c2ccccc2C)CC1,6.36%
15,Cn1c(CN2CCOCC2)nnc1SCC(=O)Nc1cc(Cl)ccc1Cl,-7.99%
16,Cc1ccccc1C(=O)N1CCN(c2ccc(NC(=O)CSc3ccc(Cl)cc3)cc2)CC1,-9.85%
17,CC(=O)c1ccc(NC(=O)C2CCC(C)NC2=O)cc1 (stereo not shown),-7.61%
18,O=C(CSC(=S)N1CCCCC1)Nc1ncc2c(n1)CC(c1ccco1)CC2=O (stereo not shown),-41.3%
19,c1ccc(NCc2ccccn2)cc1,16%
20,COc1ccc(CNC(=O)COc2cccnc2[N+](=O)[O-])cc1OC,13.5%
21,CCc1ccccc1NC(=O)CN(C)C(=O)CSc1nc2cc(Cl)ccc2s1,17.8%
22,Nn1c(SCC(=O)Nc2nnc(-c3ccccc3)o2)nnc1C1CC1,6.36%
23,CCCn1nc(C(=O)OCC(=O)Nc2ncc(Cl)c(C)c2Cl)c2ccccc2c1=O,-3.02%
24,CCOc1ccc2nc3ccc4[nH]onc4c3c2c1,7.72%
25,COc1ccc(C(=O)/C=C/NCc2ccc(C)cc2)cc1,-17.2%
26,Cc1cc(CNC(=O)CC2C(=O)NCCN2Cc2ccccc2C(F)(F)F)on1 (stereo not shown),10.1%
27,FC(F)Oc1ccc(NC(=S)NCCc2ccccn2)cc1,-12.7%
